Results taken from the supplement of paper PMC12632987.
In all, about 1,800 sequences were measured (“median log2 fold change of GCK-ALFA target abundance (FLAG IP / Myc IP barcode read proportion)”: median about 0.14, lowest 2% from about -0.84 on). The list shows a part of the results.

T1: TRAF2, Q12933
T1 chain: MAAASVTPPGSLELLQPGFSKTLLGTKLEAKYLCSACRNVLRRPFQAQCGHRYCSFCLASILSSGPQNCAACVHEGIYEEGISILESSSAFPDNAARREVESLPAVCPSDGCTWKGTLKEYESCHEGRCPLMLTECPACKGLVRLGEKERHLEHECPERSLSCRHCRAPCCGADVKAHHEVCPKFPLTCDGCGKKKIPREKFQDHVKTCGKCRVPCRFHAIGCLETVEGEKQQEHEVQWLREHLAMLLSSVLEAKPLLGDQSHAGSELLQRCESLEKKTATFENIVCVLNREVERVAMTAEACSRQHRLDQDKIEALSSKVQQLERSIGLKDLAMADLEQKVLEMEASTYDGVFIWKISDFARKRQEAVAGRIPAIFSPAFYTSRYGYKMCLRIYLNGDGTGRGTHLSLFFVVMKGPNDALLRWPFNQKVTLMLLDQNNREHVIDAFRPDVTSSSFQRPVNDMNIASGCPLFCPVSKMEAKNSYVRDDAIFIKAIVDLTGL

B1: traf2_out_17_162_1498 (protein)
chain: AATEARLAELRARLEALKERLKELEEKLPDLPKMSKEELSDLLVEVSELRREARALAEELEALAKETGSPEAVALLAEAKALAERAQEIANKIYKEYEAK
B2: traf2_out_5_189_2317 (protein)
chain: SEKEKERKELNEKARELDREVRELINRMQAEGKSWEEIAEALLKRMEELSLEDANLYSGIAYSILMGMALVSGDEELKKVAEKFRERARKLIEERERELR
B3: traf2_out_6_156_2431 (protein)
chain: KLEEILEEAKKEIKKLIDELSKASEEKKIRYFNKIAGVAKRALERLREAGASLEEIKAFAEELLKFVKEEADKAGLDEDTKNLLLASLNAVFDDAIAAAK
B4: traf2_out_15_180_1313 (protein)
chain: MTMEELRRLADIQLRIEDRALAHARELAERRGLDEERLLARTRVLVRHILSMLHVGWEEEAEAALAELAATLSPEEAAALREVAALTRELWRRERKRLEE
B5: traf2_out_20_3_2108 (protein)
chain: EELEKQYQKELEKALKLLEEAAKLADPETAKRLKELKKRVEASKSLPLSDRLVELSEVRREVLALAQEAEAAGKEELAKVLEEAADALNRAMNLVYQMIE
B6: traf2_out_15_48_1344 (protein)
chain: STEELREKAREVADRIDAAKDEVAATLEKAKPKATPEEQKILDEIITAARTGAGARTVLALLGEAIPKFSPELQAIVTELRDRLEAVIREAGREMAEVLK
B7: traf2_out_11_169_821 (protein)
chain: EEEEFNRELNDFALEQNDEAVKKLKEFALELAKEAGLDVEEVKAIFEEHKGKSLSAVAAALIAWFRSKGKEEEAKKIEEKYDELKDEINKKVSAKIKELE
B8: traf2_out_16_177_1451 (protein)
chain: ELEKVSDRLVILSLLRRAALTAVEGRGEEYKEYLEEARREAKEAGDEEALELAERIEELIEENTEEAKEELLRLARELQREAGELADRAEELIKERAKKE
B9: traf2_out_12_50_982 (protein)
chain: SMEEEERRENEELMALGDRAIDEADRIAAETGGDPEAAFARLVELAEADPSQARFLRVVVRVLRRMFLRRGADPARVGALADEAEERLDEIIEEKVPPKP
B10: traf2_out_11_155_701 (protein)
chain: EEKKKLNNELVDKMMEIEDKTKAELAKIAAEAAAEHPEHAEAIAALLEESSRFSATTMAGRLAALFEELGLEEYAARVKELREKAQEEKNKVYKEIEKKM
B11: traf2_out_20_3_2130 (protein)
chain: MELEEELEKELEEAEKLLKEAAKLADKETAAELKELIKRLKASRSLPLEDRLVVLSEVRRRVLEMAEAARAAGKEELAAVLEEAADELNEAMNLLMKIIE
B12: traf2_out_13_95_1034 (protein)
chain: SRELAEKIMEIADEAEEKILKLLEEKSKELADDPEMVKVLEEARRLALTRGVNEAIHLLREASERFPEYKEELDKLIEEIEKIREEAGKKVAELIKEEEE
B13: traf2_out_14_78_1300 (protein)
chain: MEEEVRRLRERLREREERIERLRERARELAKEKTSDALVEISEIRRELRRIALELEELLAEAEARGLPQEVLDEIRRALERAERAAEEANRLAQEVYDAL
B14: traf2_out_18_3_1907 (protein)
chain: KEEERKKLSEKIDEIEDEARAYARRVLDELAERHPEVRERLDALRADLERGGGAFGVLEALAELAKELGDEERAEEIEAFIRKKRKEFQKLVDEYEKLIK
B15: traf2_out_17_162_1631 (protein)
chain: SATEAKKAQLEAELAELEAQRKELEEKAKNIEKLSKEELTDLLVEASEARRRALELAEEIEALKKELNDPELDTLLARAEALAEQFQRLANLFYKELLKK
B16: traf2_out_17_162_1574 (protein)
chain: EELERELEELKRRLEELEERLKEFEKQLPNIPKMSYEELTDKLVEVSELRREARRLAEELRRLRKELGSEELEELVERAEEIAERLNKIANKIYKEIEKK
B17: traf2_out_9_17_2605 (protein)
chain: AAAKERRKERLLKAVKEVLEELVKEGLITEEQAKEILEKVEKLLEEGASDDEVIANFLGMVASILLTKSDLSLSEINEVVGKAYRKLRAAREALRAEEAA
B18: traf2_out_13_95_1055 (protein)
chain: SAETAAKINEIADEALERALALLRAAQEEVADDPAASAVLAEALRLAETRGISEAIHLLREAQAADPAHAERFAALIEELEAIRREAGRRVAEVLKEEKE
B19: traf2_out_20_3_2072 (protein)
chain: EELLKEAEKELEKAIKLLEEAAKKADEETAKELKELIERLKKSRELSIDDRLVVVSEVRREVLRLAEKARKEGREELAKLLEKAAEALNKAAQLLYDILQ
B20: traf2_out_6_156_2396 (protein)
chain: MLEEILKEAKEKMEELIKEMSKAPEEKKISWINRIAGVVYRALQRAREAGASLEELEAFAKEILEHAKELAEKYGLDEDTKNLLLSSLNAVFDVALEEAK
B21: traf2_out_3_77_2275 (protein)
chain: SEEEEKAREELDKATTEAIASLAVLAINRPEKAEKYREMASRLHRAVAIAKEAGAEKEFLPLVKELLEAAKALNEGNEEAEEKIEKLLKEIEAKAKKLEA
B22: traf2_out_11_155_695 (protein)
chain: SEQQKLNNELVDKMMEIEDEAKAELAAIAAAAAAEHPEHAAAIAALVAESARFSATTFAGRAAALFRELGLEAYAARVEALREEAQKKKNEVYKEIEAKR
B23: traf2_out_11_155_682 (protein)
chain: EKERELNNQLVDETTAIADKLKAEVRAIAARAAAAHPAHAAEIEAVLAASAPFSYRTFAGEAARTFERLGDADAAAEVRALLEKAQKEMNKVVKEIEAKK
B24: traf2_out_16_104_1405 (protein)
chain: EEEKKKRFDKIIEELNKIADELGRLANRLYKLMETASPEKKEELSDALVEASEARRKALQAAEEAKKAKETGGDLKEAEKKLKELKEEAKRVKKRAEELF
B25: traf2_out_6_3_2510 (protein)
chain: EEEEERKRNEEALEEAAEMSLETIKIAAKSGLKELKKAVEDPNATESDFLAYYSAINTLIEIAEKHAELNPEKKEEAEKFIKEIKKEKEKLKAEWKEKTA
B26: traf2_out_17_162_1492 (protein)
chain: SALEAELKALQAELEELRKRLEELKERLKNLENLSKEELTDLLVEASEARRRALELAERLRELREKTGDPELDTLIEEAEALAEELQRIANTIYNEILKK
B27: traf2_out_11_169_777 (protein)
chain: EEAEKNRKINDKALELNDKAKEELKKFALELAKEEGLDVEEVKKIFEENKNKSLSAVAAALIEYFESKGKEEAAKKVLEKYEELKEKINKESSAFIKSLQ
B28: traf2_out_18_167_1845 (protein)
chain: EEEVRERRRELSDRLVDLSAVRRAALRALQALETDPAAVPAELAALRAEAAKVPELQPLVDAAEAALAAGDRAALRAELERLIAAAGRLMQEAYDELEAL
B29: traf2_out_13_95_1094 (protein)
chain: SKEVAEKIMEIADKMLDESLEVLKKLLEEMKKKGKLEEEIKEVLELAENQSINEAIHKLKELAKKYPEVKELLEKAIEELEEIRRKAGKEVAKILKEEKE

Biological target: T1, TRAF2, Q12933
Assay: median log2 fold change of GCK-ALFA target abundance (FLAG IP / Myc IP barcode read proportion) (log2 ratio); each designed protein is fused to an ALFA-tag nanobody in HEK293 cells to bring the named protein to FLAG-tagged glucokinase (GCK); Myc marks an untargeted standard; higher = target protein stabilised (more abundant)
Settings: target protein: 3xFLAG-MCP-GCK-ALFA reporter; HEK293 landing pad (RPLP)
Outline: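 HEK293 landing-pad cells received a recombined binder library fused to the ALFA nanobody and were induced with 2 μg mL^−1 doxycycline, then transfected with a plasmid encoding a FLAG-tagged target and a Myc-tagged standard. Lysates were collected after 48 h for anti-FLAG and anti-Myc immunoprecipitation, and the circular RNA barcodes were reverse transcribed, amplified and sequenced. Target abundance for each binder is the median log2 ratio of FLAG to Myc barcode read proportions. Barcodes had to reach a proportion of at least 10^−7 in both replicates, each binder needed at least 3 barcodes per replicate, a pseudocount of 10^−6 was applied, and the two replicates were pooled.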

Binder	median log2 fold change
B1	0.242
B2	0.411
B3	0.246
B4	0.232
B5	-0.127
B6	0.373
B7	0.32
B8	0.21
B9	0.189
B10	0.105
B11	0.246
B12	-0.375
B13	0.162
B14	0.226
B15	0.0355
B16	-0.0729
B17	-0.138
B18	0.257
B19	0.267
B20	0.066
B21	0.323
B22	0.427
B23	0.368
B24	-0.0439
B25	0.106
B26	0.0611
B27	0.293
B28	0.179
B29	-0.0821
